{"source": "the supplement of paper PMC8728848", "experiment_in_all_cases": "glycan array binding signal (z-score within array); higher = stronger binding", "settings_in_all_cases": "glycan notation: IUPAC condensed, linker removed", "key": {"[1]": {"molecular_target": "Gal(b1-4)GlcNAc(b1-3)Gal(b1-4)GlcNAc(b1-3)Gal(b1-4)GlcNAc", "how_it_was_run": "(§1)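 Glycan array data were curated from 3228 arrays in the Consortium for Functional Glycomics database and kept only where the protein sequence was available. Glycan names were converted to IUPAC-condensed notation, and columns mapping to the same glycan were averaged. The binding signal is a within-array Z-score, averaged across arrays of the same protein sequence at different concentrations or buffers and across linkers. Negative Z-scores can be read as non-binding.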"}, "[2]": {"molecular_target": "Gal(b1-4)GlcNAc(b1-3)Gal(b1-4)GlcNAc(b1-3)Gal(b1-4)GlcNAc(b1-2)Man(a1-3)[Gal(b1-4)GlcNAc(b1-3)Gal(b1-4)GlcNAc(b1-3)Gal(b1-4)GlcNAc(b1-2)Man(a1-6)]Man(b1-4)GlcNAc(b1-4)GlcNAc", "how_it_was_run": "as §1"}, "[3]": {"molecular_target": "Gal(b1-4)GlcNAc(b1-3)Gal(b1-4)GlcNAc(b1-3)Gal(b1-4)GlcNAc(b1-2)Man(a1-3)[Gal(b1-4)GlcNAc(b1-3)Gal(b1-4)GlcNAc(b1-3)Gal(b1-4)GlcNAc(b1-2)Man(a1-6)]Man(b1-4)GlcNAc(b1-4)[Fuc(a1-6)]GlcNAc", "how_it_was_run": "as §1"}, "[4]": {"molecular_target": "Gal(b1-4)GlcNAc(b1-3)Gal(b1-4)GlcNAc(b1-3)Gal(b1-4)GlcNAc(b1-2)[Gal(b1-4)GlcNAc(b1-3)Gal(b1-4)GlcNAc(b1-3)Gal(b1-4)GlcNAc(b1-6)]Man(a1-6)[Gal(b1-4)GlcNAc(b1-3)Gal(b1-4)GlcNAc(b1-3)Gal(b1-4)GlcNAc(b1-2)Man(a1-3)]Man(b1-4)GlcNAc(b1-4)[Fuc(a1-6)]GlcNAc", "how_it_was_run": "as §1"}, "[5]": {"molecular_target": "Gal(b1-4)GlcNAc(b1-3)Gal(b1-4)GlcNAc(b1-3)Gal(b1-4)GlcNAc(b1-3)Gal(b1-4)GlcNAc(b1-2)Man(a1-3)[Gal(b1-4)GlcNAc(b1-3)Gal(b1-4)GlcNAc(b1-3)Gal(b1-4)GlcNAc(b1-3)Gal(b1-4)GlcNAc(b1-2)Man(a1-6)]Man(b1-4)GlcNAc(b1-4)GlcNAc", "how_it_was_run": "as §1"}, "[6]": {"molecular_target": "Gal(b1-4)GlcNAc(b1-3)Gal(b1-4)GlcNAc(b1-3)Gal(b1-4)GlcNAc(b1-3)Gal(b1-4)GlcNAc(b1-2)Man(a1-3)[Gal(b1-4)GlcNAc(b1-3)Gal(b1-4)GlcNAc(b1-3)Gal(b1-4)GlcNAc(b1-3)Gal(b1-4)GlcNAc(b1-2)Man(a1-6)]Man(b1-4)GlcNAc(b1-4)[Fuc(a1-6)]GlcNAc", "how_it_was_run": "as §1"}, "[7]": {"molecular_target": "Gal(b1-4)GlcNAc(b1-3)Gal(b1-4)GlcNAc(b1-3)Gal(b1-4)GlcNAc(b1-3)Gal(b1-4)GlcNAc(b1-2)[Gal(b1-4)GlcNAc(b1-3)Gal(b1-4)GlcNAc(b1-3)Gal(b1-4)GlcNAc(b1-3)Gal(b1-4)GlcNAc(b1-6)]Man(a1-6)[Gal(b1-4)GlcNAc(b1-3)Gal(b1-4)GlcNAc(b1-3)Gal(b1-4)GlcNAc(b1-3)Gal(b1-4)GlcNAc(b1-2)Man(a1-3)]Man(b1-4)GlcNAc(b1-4)[Fuc(a1-6)]GlcNAc", "how_it_was_run": "as §1"}, "[8]": {"molecular_target": "Gal(b1-4)GlcNAc(b1-3)Gal(b1-4)GlcNAc(b1-3)Gal(b1-4)GlcNAc(b1-3)Gal(b1-4)GlcNAc(b1-3)Gal(b1-4)GlcNAc(b1-2)Man(a1-3)[Gal(b1-4)GlcNAc(b1-3)Gal(b1-4)GlcNAc(b1-3)Gal(b1-4)GlcNAc(b1-3)Gal(b1-4)GlcNAc(b1-3)Gal(b1-4)GlcNAc(b1-2)Man(a1-6)]Man(b1-4)GlcNAc(b1-4)GlcNAc", "how_it_was_run": "as §1"}, "[9]": {"molecular_target": "Gal(b1-4)GlcNAc(b1-3)Gal(b1-4)GlcNAc(b1-3)Gal(b1-4)GlcNAc(b1-3)Gal(b1-4)GlcNAc(b1-3)Gal(b1-4)GlcNAc(b1-2)Man(a1-3)[Gal(b1-4)GlcNAc(b1-3)Gal(b1-4)GlcNAc(b1-3)Gal(b1-4)GlcNAc(b1-3)Gal(b1-4)GlcNAc(b1-3)Gal(b1-4)GlcNAc(b1-2)Man(a1-6)]Man(b1-4)GlcNAc(b1-4)[Fuc(a1-6)]GlcNAc", "how_it_was_run": "as §1"}, "[10]": {"molecular_target": "Gal(b1-4)GlcNAc(b1-3)Gal(b1-4)GlcNAc(b1-3)Gal(b1-4)GlcNAc(b1-3)Gal(b1-4)GlcNAc(b1-3)Gal(b1-4)GlcNAc(b1-2)[Gal(b1-4)GlcNAc(b1-3)Gal(b1-4)GlcNAc(b1-3)Gal(b1-4)GlcNAc(b1-3)Gal(b1-4)GlcNAc(b1-3)Gal(b1-4)GlcNAc(b1-6)]Man(a1-6)[Gal(b1-4)GlcNAc(b1-3)Gal(b1-4)GlcNAc(b1-3)Gal(b1-4)GlcNAc(b1-3)Gal(b1-4)GlcNAc(b1-3)Gal(b1-4)GlcNAc(b1-2)Man(a1-3)]Man(b1-4)GlcNAc(b1-4)[Fuc(a1-6)]GlcNAc", "how_it_was_run": "as §1"}, "[11]": {"molecular_target": "Gal(b1-4)GlcNAc(b1-3)Gal(b1-4)GlcNAc(b1-3)Gal(b1-4)GlcNAc(b1-3)Gal(b1-4)GlcNAc(b1-3)Gal(b1-4)GlcNAc(b1-3)Gal(b1-4)GlcNAc(b1-2)Man(a1-3)[Gal(b1-4)GlcNAc(b1-3)Gal(b1-4)GlcNAc(b1-3)Gal(b1-4)GlcNAc(b1-3)Gal(b1-4)GlcNAc(b1-3)Gal(b1-4)GlcNAc(b1-3)Gal(b1-4)GlcNAc(b1-2)Man(a1-6)]Man(b1-4)GlcNAc(b1-4)GlcNAc", "how_it_was_run": "as §1"}, "[12]": {"molecular_target": "Gal(b1-4)GlcNAc(b1-3)Gal(b1-4)GlcNAc(b1-3)GalNAc", "how_it_was_run": "as §1"}, "[13]": {"molecular_target": "Gal(b1-4)GlcNAc(b1-3)Gal(b1-4)GlcNAc(b1-3)[Gal(b1-4)GlcNAc(b1-3)Gal(b1-4)GlcNAc(b1-6)]GalNAc", "how_it_was_run": "as §1"}, "[14]": {"molecular_target": "Gal(b1-4)GlcNAc(b1-3)Gal(b1-4)GlcNAc(b1-6)[Gal(b1-3)]GalNAc", "how_it_was_run": "as §1"}, "[15]": {"molecular_target": "Gal(b1-4)GlcNAc(b1-3)Gal(b1-4)[Fuc(a1-3)]GlcNAc(b1-3)Gal(b1-4)[Fuc(a1-3)]GlcNAc", "how_it_was_run": "as §1"}, "[16]": {"molecular_target": "Gal(b1-4)GlcNAc(b1-3)GalNAc", "how_it_was_run": "as §1"}, "[17]": {"molecular_target": "Gal(b1-4)GlcNAc(b1-3)[Fuc(a1-3)GlcNAc(b1-6)]Gal(b1-4)Glc", "how_it_was_run": "as §1"}, "[18]": {"molecular_target": "Gal(b1-4)GlcNAc(b1-3)[Gal(b1-4)GlcNAc(b1-6)]Gal(b1-4)GlcNAc", "how_it_was_run": "as §1"}, "[19]": {"molecular_target": "Gal(b1-4)GlcNAc(b1-3)[GlcNAc(b1-6)]Gal(b1-4)GlcNAc", "how_it_was_run": "as §1"}}, "note": "The other results are listed elsewhere or left out.", "data": [{"binder": "DC-ASGPR-short (Homo sapiens) (protein) MTRTYENFQYLENKVKVQGFKNGPLPLQSLLQRLRSGPCHLLLSLGLGLLLLVIICVVGFQNSKFQRDLVTLRTDFSNFTSNTVAEIQALTSQGSSLEETIASLKAEVEGFKQERQAVHSEMLLRVQQLVQDLKKLTCQVATLNNNASTEGTCCPVNWVEHQDSCYWFSHSGMSWAEAEKYCQLKNAHLVVINSREEQNFVQKYLGSAYTWMGLSDPEGAWKWVDGTDYATGFQNWKPGQPDDWQGHGLGGGEDCAHFHPDGRWNDDVCQRPYHWVCEAGLGQTSQESH", "values": [{"measurement": "glycan array binding signal (z-score)", "setting": "[1]", "result": -0.28}, {"measurement": "glycan array binding signal (z-score)", "setting": "[2]", "result": -0.221}, {"measurement": "glycan array binding signal (z-score)", "setting": "[3]", "result": -0.222}, {"measurement": "glycan array binding signal (z-score)", "setting": "[4]", "result": -0.198}, {"measurement": "glycan array binding signal (z-score)", "setting": "[5]", "result": -0.207}, {"measurement": "glycan array binding signal (z-score)", "setting": "[6]", "result": -0.235}, {"measurement": "glycan array binding signal (z-score)", "setting": "[7]", "result": -0.195}, {"measurement": "glycan array binding signal (z-score)", "setting": "[8]", "result": -0.155}, {"measurement": "glycan array binding signal (z-score)", "setting": "[9]", "result": -0.17}, {"measurement": "glycan array binding signal (z-score)", "setting": "[10]", "result": -0.147}, {"measurement": "glycan array binding signal (z-score)", "setting": "[11]", "result": -0.166}, {"measurement": "glycan array binding signal (z-score)", "setting": "[12]", "result": -0.277}, {"measurement": "glycan array binding signal (z-score)", "setting": "[13]", "result": -0.26}, {"measurement": "glycan array binding signal (z-score)", "setting": "[14]", "result": -0.258}, {"measurement": "glycan array binding signal (z-score)", "setting": "[15]", "result": -0.258}, {"measurement": "glycan array binding signal (z-score)", "setting": "[16]", "result": -0.281}, {"measurement": "glycan array binding signal (z-score)", "setting": "[17]", "result": -0.274}, {"measurement": "glycan array binding signal (z-score)", "setting": "[18]", "result": -0.282}, {"measurement": "glycan array binding signal (z-score)", "setting": "[19]", "result": -0.289}]}]}
